According to PMC3110179:
No constants are given. Whether binding was seen depends on the method and setting. For part of these data: Binding seen in cells or lysates may run through a third protein. Some results given as binding are weak or reduced against the parent protein; the word gives no strength.

T1: C-terminus of phot1 including its Ser/Thr kinase domain (amino acids 612-996), two-hybrid bait (Arabidopsis thaliana) (UniProt O48963)
T1 sequence: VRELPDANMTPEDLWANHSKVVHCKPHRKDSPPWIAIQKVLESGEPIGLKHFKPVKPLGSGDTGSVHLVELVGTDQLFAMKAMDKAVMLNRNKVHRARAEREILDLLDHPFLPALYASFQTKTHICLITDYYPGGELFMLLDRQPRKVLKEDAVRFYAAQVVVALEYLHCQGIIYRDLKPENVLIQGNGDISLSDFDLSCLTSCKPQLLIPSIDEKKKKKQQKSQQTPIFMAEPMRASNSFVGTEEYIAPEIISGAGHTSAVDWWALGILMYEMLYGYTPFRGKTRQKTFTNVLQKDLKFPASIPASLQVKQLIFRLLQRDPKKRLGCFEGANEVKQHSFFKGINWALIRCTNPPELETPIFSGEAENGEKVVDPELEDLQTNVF


How the values were obtained:
[1] = target: T1, C-terminus of phot1 including its Ser/Thr kinase domain (amino acids 612-996), two-hybrid bait (Arabidopsis thaliana); assay: two-hybrid; yeast; regions of B19 (and B1) in pGADT7 prey, regions of PHOT1 in pGBKT7 bait; growth on full selection medium
[2] = target: B19-hemagglutinin (B19:B19-HA) (Arabidopsis thaliana) (UniProt Q9LJX0); assay: co-IP; B19-HA immunoprecipitated with anti-HA from Arabidopsis seedlings overexpressing TWD1 and B19-HA; dark-acclimated or 3-d-old dark-grown seedlings, with or without directional blue light (2 µmol m^-2 s^-1, 2 h; interaction attenuated, not in phot1-5); immunoblot with anti-B19 and anti-TWD1

| binding [1] | Binder | binding [2] |
| --- | --- | --- |
| no binding | C-terminus of B1 (B1C, amino acids 1049-1286), two-hybrid prey (domain or fragment, UniProt Q9ZR72 1049-1286) ARAGKTLALVGPSGCGKSSVISLIQRFYEPSSGRVMIDGKDIRKYNLKAIRKHIAIVPQEPCLFGTTIYENIAYGHECATEAEIIQAATLASAHKFISALPEGYKTYVGERGVQLSGGQKQRIAIARALVRKAEIMLLDEATSALDAESERSVQEALDQACSGRTSIVVAHRLSTIRNAHVIAVIDDGKVAEQGSHSHLLKNHPDGIYARMIQLQRFTHTQVIGMTSGSSSRVKEDDA |  |
|  | FKBP42/TWISTED DWARF 1 (TWD1) (protein, UniProt Q9LDC0 1-365) MDESLEHQTQTHDQESEIVTEGSAVVHSEPSQEGNVPPKVDSEAEVLDEKVSKQIIKEGHGSKPSKYSTCFLHYRAWTKNSQHKFEDTWHEQQPIELVLGKEKKELAGLAIGVASMKSGERALVHVGWELAYGKEGNFSFPNVPPMADLLYEVEVIGFDETKEGKARSDMTVEERIGAADRRKMDGNSLFKEEKLEEAMQQYEMAIAYMGDDFMFQLYGKYQDMALAVKNPCHLNIAACLIKLKRYDEAIGHCNIVLTEEEKNPKALFRRGKAKAELGQMDSARDDFRKAQKYAPDDKAIRRELRALAEQEKALYQKQKEMYKGIFKGKDEGGAKSKSLFWLIVLWQWFVSLFSRIFRRHRVKAD | binds |
| binds | internal NBD of B19 (B19I, amino acids 480-660), two-hybrid prey (domain or fragment, UniProt Q9LJX0 480-660) ANAHSFITLLPKGYDTQVGERGVQLSGGQKQRIAIARAMLKDPKILLLDEATSALDASSESIVQEALDRVMVGRTTVVVAHRLCTIRNVDSIAVIQQGQVVETGTHEELIAKSGAYASLIRFQEMVGTRDFSNPSTRRTRSTRLSHSLSTKSLSLRSGSLRNLSYSYSTGADGRIEMISNA |  |
